Experimental data reported in article PMC10480498.
These are yes or no findings as the source states them, for the method shown. Binding seen in cells or lysates may run through a third protein. Some entries that bind do so weakly or less than the wild type. For some assays here: Where a sequence is shown, tags or fusion partners need not be part of it.

Amino acid sequences for entries named in this document (tags omitted).
UniProt P43403: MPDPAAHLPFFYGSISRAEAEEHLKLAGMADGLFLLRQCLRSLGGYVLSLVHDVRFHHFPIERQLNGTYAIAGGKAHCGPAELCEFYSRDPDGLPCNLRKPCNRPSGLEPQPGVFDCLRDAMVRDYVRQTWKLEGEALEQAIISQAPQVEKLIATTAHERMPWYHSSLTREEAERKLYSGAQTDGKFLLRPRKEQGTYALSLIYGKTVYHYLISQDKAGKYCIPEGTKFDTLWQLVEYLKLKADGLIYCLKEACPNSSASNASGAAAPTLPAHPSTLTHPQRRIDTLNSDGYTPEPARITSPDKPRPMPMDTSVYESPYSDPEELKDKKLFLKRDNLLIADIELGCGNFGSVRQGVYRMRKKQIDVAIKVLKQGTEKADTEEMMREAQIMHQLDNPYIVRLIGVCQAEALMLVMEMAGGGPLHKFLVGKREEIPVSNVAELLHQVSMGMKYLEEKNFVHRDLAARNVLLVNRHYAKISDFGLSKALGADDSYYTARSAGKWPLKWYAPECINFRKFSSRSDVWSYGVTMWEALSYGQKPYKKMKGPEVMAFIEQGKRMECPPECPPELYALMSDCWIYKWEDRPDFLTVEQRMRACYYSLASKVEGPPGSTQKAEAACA
UniProt P06239: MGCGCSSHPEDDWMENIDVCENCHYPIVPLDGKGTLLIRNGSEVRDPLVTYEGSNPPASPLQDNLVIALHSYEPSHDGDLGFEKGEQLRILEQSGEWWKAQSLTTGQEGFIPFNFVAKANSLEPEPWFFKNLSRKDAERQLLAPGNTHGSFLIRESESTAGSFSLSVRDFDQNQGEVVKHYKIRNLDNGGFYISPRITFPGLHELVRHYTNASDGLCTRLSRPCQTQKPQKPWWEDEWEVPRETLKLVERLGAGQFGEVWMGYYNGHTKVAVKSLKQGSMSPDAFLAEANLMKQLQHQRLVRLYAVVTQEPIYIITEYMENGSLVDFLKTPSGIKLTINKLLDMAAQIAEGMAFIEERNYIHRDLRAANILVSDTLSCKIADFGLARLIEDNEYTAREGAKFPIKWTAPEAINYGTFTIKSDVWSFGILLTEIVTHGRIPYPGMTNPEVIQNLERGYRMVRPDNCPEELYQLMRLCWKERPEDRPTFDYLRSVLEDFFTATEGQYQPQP

Legend:
[1] = target: T1, inositol polyphosphate-5-phosphatase E (INPP5E), endogenous in Jurkat T cells (human (endogenous in Jurkat)) (UniProt Q9NRR6); assay: co-IP; Jurkat T cells activated by crosslinking anti-CD3/CD28 for 2-10 min; lysates (Tris-HCl pH 7.5, 150 mM NaCl, 1 mM EDTA, 1% NP-40) precipitated with anti-INPP5E antibody and protein G agarose at 4 °C overnight; immunoblot; IgG control
T1 sequence: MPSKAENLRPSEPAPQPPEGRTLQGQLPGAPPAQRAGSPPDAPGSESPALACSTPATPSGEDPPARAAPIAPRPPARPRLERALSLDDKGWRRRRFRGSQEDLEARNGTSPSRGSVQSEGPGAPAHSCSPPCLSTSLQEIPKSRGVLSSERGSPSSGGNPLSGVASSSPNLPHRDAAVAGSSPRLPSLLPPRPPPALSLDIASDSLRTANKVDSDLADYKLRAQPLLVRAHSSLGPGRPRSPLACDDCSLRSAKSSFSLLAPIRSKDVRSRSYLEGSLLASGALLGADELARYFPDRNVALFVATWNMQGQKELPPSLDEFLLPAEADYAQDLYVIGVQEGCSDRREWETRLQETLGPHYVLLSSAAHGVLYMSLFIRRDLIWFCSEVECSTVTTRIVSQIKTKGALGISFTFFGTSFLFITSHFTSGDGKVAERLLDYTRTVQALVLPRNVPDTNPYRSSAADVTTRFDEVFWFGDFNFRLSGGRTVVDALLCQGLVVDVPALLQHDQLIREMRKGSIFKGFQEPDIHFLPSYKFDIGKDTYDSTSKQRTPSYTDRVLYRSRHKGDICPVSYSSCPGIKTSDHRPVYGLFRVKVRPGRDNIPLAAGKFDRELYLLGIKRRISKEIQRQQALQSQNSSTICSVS

Flag-INPP5E [2] = target: T2, Flag-INPP5E (UniProt Q9NRR6); assay: co-IP; HEK293T transfected with CD3ζ-GFP, Lck, ZAP-70-Myc and Flag-INPP5E together; lysates (20 mM Tris-HCl pH 7.5, 150 mM NaCl, 1 mM EDTA, 1% NP-40) precipitated with anti-Flag antibody and protein G agarose; western blot
T2 sequence: T1 sequence

Flag-INPP5E [3] = target: T2, Flag-INPP5E; assay: co-IP; HEK293T co-expressing Flag-INPP5E and either CD3ζ, ZAP-70 or Lck separately; lysates precipitated with anti-Flag antibody and protein G agarose; western blot
[4] = target: T3, Flag-INPP5E N-terminal region (amino acids 1–289) (UniProt Q9NRR6); assay: co-IP; INPP5E truncations (1-289, 288-644) tested for pulling down CD3ζ-GFP (Supplementary Fig. 3b); cells and antibody not given
T3 sequence: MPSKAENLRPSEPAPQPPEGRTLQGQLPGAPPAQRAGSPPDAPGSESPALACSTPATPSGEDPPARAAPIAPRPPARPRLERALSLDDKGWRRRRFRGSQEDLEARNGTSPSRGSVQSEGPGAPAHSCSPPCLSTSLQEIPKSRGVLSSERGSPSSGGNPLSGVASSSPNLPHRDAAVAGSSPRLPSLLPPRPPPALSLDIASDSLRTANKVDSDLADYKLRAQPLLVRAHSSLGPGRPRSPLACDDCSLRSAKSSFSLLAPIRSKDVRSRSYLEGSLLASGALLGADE

[5] = target: T4, Flag-INPP5E C-terminal region (amino acids 288–644) (UniProt Q9NRR6); assay: as above
T4 sequence: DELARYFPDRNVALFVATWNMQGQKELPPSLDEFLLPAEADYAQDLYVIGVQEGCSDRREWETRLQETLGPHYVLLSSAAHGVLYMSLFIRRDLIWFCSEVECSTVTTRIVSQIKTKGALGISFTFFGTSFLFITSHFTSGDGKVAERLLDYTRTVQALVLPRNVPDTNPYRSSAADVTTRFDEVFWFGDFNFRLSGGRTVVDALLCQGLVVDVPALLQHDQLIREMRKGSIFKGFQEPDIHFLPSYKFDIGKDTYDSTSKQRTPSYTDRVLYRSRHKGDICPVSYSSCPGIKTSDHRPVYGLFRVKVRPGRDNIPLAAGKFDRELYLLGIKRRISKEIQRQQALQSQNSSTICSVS

Substance	binding [1]	binding (Flag-INPP5E [2])	binding (Flag-INPP5E [3])	binding [4]	binding [5]
ZAP-70 (zeta-chain-associated protein kinase 70), endogenous in Jurkat T cells (from UniProt P43403 1-619) (enzyme)	binds				
ZAP-70-Myc (from UniProt P43403 1-619) (enzyme)		binds	binds		
Lck, endogenous in Jurkat T cells (from UniProt P06239 1-509) (enzyme)	binds				
CD3ζ-GFP (from UniProt P20963-1 22-164) (receptor)		binds	binds	no binding	binds
Lck (expressed in HEK293T) (from UniProt P06239 1-509) (enzyme)		binds	binds		
CD3ζ, endogenous in Jurkat T cells (from UniProt P20963-1 22-164) (receptor)	binds				
